# Laboratory results published in the supplement of paper PMC8728848.
# Some of the results follow.
# B1: AAL (Agrocybe aegerita), Q6WY08 (protein)
# chain: MQGVNIYNISAGTSVDLAAPVTTGDIVTFFSSALNLNAGAGNPNNTTLNLFAENGAYLLHIAHRLQENVIIFNSRQPDGPWLVEQRVSDVANQFAGIDGKAMVTVFDHGDKYQVVINEKTVIQYTKQISGLTLSLSYNATEETSIFSTVVEAVTYTGLALEHHHHHH
# Key:
# Assay in all cases: glycan array binding signal (z-score within array); higher = stronger binding
# Settings in all cases: glycan notation: IUPAC condensed, linker removed; mutation: F63H
# [1] = biological target: Neu5Ac(a2-6)Gal(b1-4)GlcNAc(b1-6)[Gal(b1-3)GlcNAc(b1-3)]Gal(b1-4)Glc
# How it was run: (§1)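 Negative Z-scores can be read as non-binding. The Z-score is calculated within each array and then averaged across arrays of one protein sequence at different concentrations or buffers and across linkers. Arrays, 3228 in all, were curated from the Consortium for Functional Glycomics database and kept only where the protein sequence was available.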
# [2] = biological target: Neu5Ac(a2-6)Gal(b1-4)GlcNAc(b1-6)[Gal(b1-3)]GalNAc
# How it was run: as §1
# [3] = biological target: Neu5Ac(a2-6)Gal(b1-4)GlcNAc6S
# How it was run: as §1
# Neu5Ac(a2-6)GalNAc = biological target: Neu5Ac(a2-6)GalNAc
# How it was run: as §1
# [4] = biological target: Neu5Ac(a2-6)GalNAc(b1-4)GlcNAc
# How it was run: as §1
# [5] = biological target: Neu5Ac(a2-6)GalNAc(b1-4)GlcNAc6S
# How it was run: as §1
# [6] = biological target: Neu5Ac(a2-6)GlcNAc(b1-4)GlcNAc
# How it was run: as §1
# [7] = biological target: Neu5Ac(a2-6)GlcNAc(b1-4)GlcNAc(b1-4)GlcNAc
# How it was run: as §1
# Neu5Ac(a2-8)Neu5Ac = biological target: Neu5Ac(a2-8)Neu5Ac
# How it was run: as §1
# [8] = biological target: Neu5Ac(a2-8)Neu5Ac(a2-3)Gal(b1-3)GalNAc(b1-4)[Neu5Ac(a2-3)]Gal(b1-4)Glc
# How it was run: as §1
# [9] = biological target: Neu5Ac(a2-8)Neu5Ac(a2-3)Gal(b1-3)GalNAc(b1-4)[Neu5Ac(a2-8)Neu5Ac(a2-3)]Gal(b1-4)Glc
# How it was run: as §1
# [10] = biological target: Neu5Ac(a2-8)Neu5Ac(a2-3)Gal(b1-4)Glc
# How it was run: as §1
# [11] = biological target: Neu5Ac(a2-8)Neu5Ac(a2-3)Gal(b1-4)GlcNAc
# How it was run: as §1
# [12] = biological target: Neu5Ac(a2-8)Neu5Ac(a2-3)[Gal(b1-3)GalNAc(b1-4)]Gal(b1-4)Glc
# How it was run: as §1
# [13] = biological target: Neu5Ac(a2-8)Neu5Ac(a2-3)[GalNAc(b1-4)]Gal(b1-4)Glc
# How it was run: as §1
# [14] = biological target: Neu5Ac(a2-8)Neu5Ac(a2-8)Neu5Ac
# How it was run: as §1
# [15] = biological target: Neu5Ac(a2-8)Neu5Ac(a2-8)Neu5Ac(a2-3)Gal(b1-4)Glc
# How it was run: as §1
# [16] = biological target: Neu5Ac(a2-8)Neu5Ac(a2-8)Neu5Ac(a2-3)[Gal(b1-3)GalNAc(b1-4)]Gal(b1-4)Glc
# How it was run: as §1
# [17] = biological target: Neu5Ac(a2-8)Neu5Ac(a2-8)Neu5Ac(a2-3)[GalNAc(b1-4)]Gal(b1-4)Glc
# How it was run: as §1
# [18] = biological target: Neu5Ac(a2-8)Neu5Ac(a2-8)Neu5Ac(a2-8)Neu5Ac(a2-3)[GalNAc(b1-4)]Gal(b1-4)Glc
# How it was run: as §1
# [19] = biological target: Neu5Ac(a2-8)Neu5Gc(a2-3)Gal(b1-4)GlcNAc
# How it was run: as §1
# [20] = biological target: Neu5Ac(b2-6)Gal(b1-4)GlcNAc
# How it was run: as §1
# Neu5Ac(b2-6)GalNAc = biological target: Neu5Ac(b2-6)GalNAc
# How it was run: as §1
# [21] = biological target: Neu5Ac9Ac(a2-3)Gal(b1-3)GlcNAc
# How it was run: as §1
# [22] = biological target: Neu5Ac9Ac(a2-3)Gal(b1-4)GlcNAc
# How it was run: as §1
# [23] = biological target: Neu5Ac9Ac(a2-6)Gal(b1-4)GlcNAc
# How it was run: as §1
# [24] = biological target: Neu5Gc(a2-3)Gal(b1-3)GlcNAc
# How it was run: as §1
# [25] = biological target: Neu5Gc(a2-3)Gal(b1-3)[Fuc(a1-4)]GlcNAc
# How it was run: as §1
# Neu5Gc(a2-3)Gal(b1-4)Glc = biological target: Neu5Gc(a2-3)Gal(b1-4)Glc
# How it was run: as §1
# [26] = biological target: Neu5Gc(a2-3)Gal(b1-4)GlcNAc
# How it was run: as §1
# [27] = biological target: Neu5Gc(a2-3)Gal(b1-4)GlcNAc(b1-3)Gal(b1-4)GlcNAc(b1-2)Man(a1-3)[Neu5Gc(a2-3)Gal(b1-4)GlcNAc(b1-3)Gal(b1-4)GlcNAc(b1-2)Man(a1-6)]Man(b1-4)GlcNAc(b1-4)GlcNAc
# How it was run: as §1
# [28] = biological target: Neu5Gc(a2-3)Gal(b1-4)[Fuc(a1-3)]GlcNAc
# How it was run: as §1
# [29] = biological target: Neu5Gc(a2-6)Gal(b1-4)GlcNAc
# How it was run: as §1
# Neu5Gc(a2-6)GalNAc = biological target: Neu5Gc(a2-6)GalNAc
# How it was run: as §1
# [30] = biological target: Neu5Gc(a2-8)Neu5Ac(a2-3)Gal(b1-4)GlcNAc
# How it was run: as §1
# [31] = biological target: Neu5Gc(a2-8)Neu5Gc(a2-3)Gal(b1-4)GlcNAc
# How it was run: as §1
# [32] = biological target: Neu5Gc(a2-8)Neu5Gc(a2-3)Gal(b1-4)GlcNAc(b1-3)Gal(b1-4)GlcNAc
# How it was run: as §1
# [33] = biological target: Neu5Gc(a2-8)Neu5Gc(a2-6)Gal(b1-4)GlcNAc
# How it was run: as §1
# [34] = biological target: Neu5Gc(b2-6)Gal(b1-4)GlcNAc
# How it was run: as §1
binder,measurement,setting,value
B1,glycan array binding signal (z-score),[1],-0.33
same,glycan array binding signal (z-score),[2],0.137
same,glycan array binding signal (z-score),[3],-0.305
same,glycan array binding signal (z-score),Neu5Ac(a2-6)GalNAc,-0.272
same,glycan array binding signal (z-score),[4],-0.219
same,glycan array binding signal (z-score),[5],-0.324
same,glycan array binding signal (z-score),[6],0.101
same,glycan array binding signal (z-score),[7],-0.433
same,glycan array binding signal (z-score),Neu5Ac(a2-8)Neu5Ac,-0.378
same,glycan array binding signal (z-score),[8],0.371
same,glycan array binding signal (z-score),[9],0.508
same,glycan array binding signal (z-score),[10],0.213
same,glycan array binding signal (z-score),[11],-0.674
same,glycan array binding signal (z-score),[12],0.017
same,glycan array binding signal (z-score),[13],-0.402
same,glycan array binding signal (z-score),[14],0.022
same,glycan array binding signal (z-score),[15],0.632
same,glycan array binding signal (z-score),[16],0.022
same,glycan array binding signal (z-score),[17],0.05
same,glycan array binding signal (z-score),[18],-0.611
same,glycan array binding signal (z-score),[19],-0.12
same,glycan array binding signal (z-score),[20],0.218
same,glycan array binding signal (z-score),Neu5Ac(b2-6)GalNAc,-0.761
same,glycan array binding signal (z-score),[21],-0.405
same,glycan array binding signal (z-score),[22],-0.004
same,glycan array binding signal (z-score),[23],-0.283
same,glycan array binding signal (z-score),[24],-0.47
same,glycan array binding signal (z-score),[25],0.062
same,glycan array binding signal (z-score),Neu5Gc(a2-3)Gal(b1-4)Glc,1.34
same,glycan array binding signal (z-score),[26],-0.295
same,glycan array binding signal (z-score),[27],-0.043
same,glycan array binding signal (z-score),[28],0.023
same,glycan array binding signal (z-score),[29],-0.166
same,glycan array binding signal (z-score),Neu5Gc(a2-6)GalNAc,-0.14
same,glycan array binding signal (z-score),[30],-0.208
same,glycan array binding signal (z-score),[31],-0.039
same,glycan array binding signal (z-score),[32],-0.228
same,glycan array binding signal (z-score),[33],-0.32
same,glycan array binding signal (z-score),[34],-0.366
